Screen size: about 310,000 compounds; about 18,000 (5.8%) were called active. The shares of active, inactive and inconclusive entries below differ from those in the screen. The call rests on the fitted dose curve; in most records, active means well fitted inhibition curve with a large enough effect; inconclusive means small, poorly fitted or top-dose-only effect, or another doubt; inactive means no such curve, though single readings can be large or run the other way. No potency is given beside an inconclusive call; the fits are too rough.
Experiment: Primary qHTS for delayed death inhibitors of the malarial parasite plastid, 48 hour incubation
Conditions: P. falciparum luciferase growth in erythrocytes; series mostly up to 28.7 µM; activity change, negative = inhibition: at the top concentration
Method in brief: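 Here the parasites carry a stable luciferase gene and grow inside erythrocytes in Albumax-based RPMI medium with compound for one erythrocytic cycle. Activity is scored as loss of luminescent signal.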
On the % scale 0 is the no-effect control and ±100 the full control effect; potency means the concentration at half of the fitted maximal effect; tags describe the fitted curve by direction and shape.

SMILES | Potency | activity change, negative = inhibition
CCN(C(=O)CSc1nc2cc(S(=O)(=O)N(CC)CC)ccc2o1)C1CCS(=O)(=O)C1 (stereo unspecified) | inconclusive [inhibitor, single point] | –
CCOc1ccc(N=C2Sc3nc4ccc(C)cc4cc3CN2CCOC)cc1 | inconclusive [inhibitor, partial curve, poor fit] | –
N#CCCN(C(=O)COc1ccc(C#N)cc1)c1ccc(F)cc1 | inconclusive [inhibitor, partial curve, poor fit] | –
O=C(Nc1ccccc1)c1ccccc1CSc1ccccc1 | inconclusive [inhibitor, single point] | –
CCOc1ccc(NC(=O)N2CCC(n3nnc4ccccc43)CC2)cc1 | inconclusive [inhibitor, partial curve, poor fit] | –
O=C1Cc2cc(S(=O)(=O)Nc3ccc(F)cc3Cl)ccc2N1 | – | inactive: 22.3%
CC(NC(=O)CCN1C(=O)c2ccccc2C1=O)c1ccccc1 (stereo unspecified) | – | inactive: 24.1%
O=C(Nc1cc(S(=O)(=O)N2CCCCCC2)ccc1OCC(F)(F)F)c1cnccn1 | inconclusive [inhibitor, partial curve] | –
Cc1ccc(/C=C/C(=O)N2CCCC(C(N)=O)C2)o1 (stereo unspecified) | inconclusive [inhibitor, single point] | –
O=c1[nH]c(CSc2ncn[nH]2)nc2ccccc12 | – | inactive: 16.2%
CCOc1ccc(NC(=S)NCc2ccc3c(c2)OCO3)cc1 | inconclusive [inhibitor, single point] | –
COc1ccc(C2=NN(S(=O)(=O)c3ccccc3)C(c3ccccc3)C2)cc1 (stereo unspecified) | inconclusive [inhibitor, partial curve, poor fit] | –
N#Cc1ccc(C(=O)Nn2cnnc2)cc1 | – | inactive: -4.81%
Oc1ccc(-c2onc(C(F)(F)F)c2-c2cscn2)c(O)c1 | inconclusive [inhibitor, single point] | –
COc1ccc(C2=C/C(=C\c3ccccc3OC(C)=O)C(=O)O2)cc1 | – | inactive: 27.7%
COc1ccc(O)c(N)c1 | – | inactive: 32.2%
CC(C)c1ccc(C(O)Cc2nc3ccccc3n2C)cc1 (stereo unspecified) | inconclusive [inhibitor, partial curve] | –
O=C1CCC(/C=C/c2ccccc2)=NN1 | – | inactive: 16.8%
COc1cccc(CN(C)C(=O)c2cccc(OC3CCN(C4CCCC4)CC3)c2)c1 | inconclusive [inhibitor, single point] | –
C=CCn1c(CNc2ccc(C)cc2)nnc1SCC(=O)N/N=C/c1ccc(O)cc1O | inconclusive [inhibitor, single point] | –
CC(C)CCCC(C)NC(=O)c1cc(S(=O)(=O)N2CCCCC2)ccc1N1CCOCC1 (stereo unspecified) | inconclusive [inhibitor, partial curve, poor fit] | –
COC(=O)c1ccc(NC(=O)COc2ccc(N(C)S(=O)(=O)c3ccc(C)cc3)cc2)cc1 | inconclusive [inhibitor, partial curve, poor fit] | –
O=C(CCN1C(=O)/C(=C/c2ccccc2)SC1=S)N1CCCCCC1 | – | inactive: -27.6%
Cc1ccc(S(=O)(=O)NC2CC(C)(C)NC(C)(C)C2)cc1C | inconclusive [inhibitor, full curve, poor fit] | –

SMILES | Potency | activity change, negative = inhibition
CC1(C)C(=O)Nc2ccccc2N1C(=O)COC(=O)c1cc(S(C)(=O)=O)ccc1Cl | inconclusive [inhibitor, single point] | –
Cc1ccc(C(C)c2c(C)c([N+](=O)[O-])cc(C)c2[N+](=O)[O-])cn1 (stereo unspecified) | inconclusive [inhibitor, partial curve, poor fit] | –
Cc1nc2c(C(=O)NCc3cccs3)cnn2c(C)c1Cc1ccccc1 | inconclusive [inhibitor, partial curve, poor fit] | –
COc1ccc(Nc2nc(-c3ccccc3)nc3ccccc23)c(OC)c1 | inconclusive [inhibitor, single point] | –
CN(C)S(=O)(=O)c1ccc(C(=O)NCCN2C(=O)S/C(=C\c3cccnc3)C2=O)cc1 | inconclusive [inhibitor, partial curve] | –
O=C(Nc1ccc(C(=O)N2CCN(c3ccc(Cl)cc3)CC2)cc1)C1=CSCCO1 | inconclusive [inhibitor, single point] | –
COC(=O)[C@H](C)NC(=O)Nc1ccc(OC)c(OC)c1 | – | inactive: 24.8%
CCOC(=O)N1CCC(N2Cc3cccc(C(=O)NCc4ccc(OC)cc4)c3C2=O)CC1 | active: 7.38 µM | –
CC(=O)c1ccc(-c2ccc(C(=O)NC3CC(C)(C)NC(C)(C)C3)o2)cc1 | inconclusive [inhibitor, partial curve] | –
S=C(NC1CCCCC1)N1CCN(Cc2ccccc2Cl)CC1 | inconclusive [inhibitor, partial curve] | –
Cc1cccc(NC(=O)[C@H](C)NC(=O)[C@@H]2Cc3ccccc3CN2C(=O)OC(C)(C)C)c1 | inconclusive [inhibitor, single point] | –
O=S(=O)(c1ccc(OC(F)(F)F)cc1)N1CCCC(c2ccccc2)C1 (stereo unspecified) | – | inactive: 24.1%
CCOC(=O)c1c(C)[nH]c(C)c1C(=O)CN1C(=O)NC2(CCCCCC2)C1=O | active: 6.57 µM | –
CC(=O)c1ccc(S(=O)(=O)NCCCC(=O)N(C)Cc2ccc3c(c2)OCO3)cc1 | inconclusive [inhibitor, single point] | –
Cc1ccc(Cn2nnc3c(=O)[nH]c(C4CCN(C(=O)c5cccs5)CC4)nc32)cc1 | active: 13.1 µM | –
COc1ccc(NC(=O)Cn2c(C)csc2=O)c(OC)c1 | inconclusive [inhibitor, partial curve, poor fit] | –
Nc1oc2ccccc2c(=O)c1C=O | – | inactive: 18.9%
O=S1(=O)CC2(N3CCOCC3)CCCCC21 (stereo unspecified) | – | inactive: 11.9%
O=C(Cc1cccs1)NNC(=O)c1ccc(F)cc1 | – | inactive: 14.6%
Cc1ccc(Cl)c(OCC(=O)Nc2cc(S(=O)(=O)N3CCOCC3)ccc2N2CCCC2)c1 | active: 11.7 µM | –
COc1ccc(S(=O)(=O)N2CCOC23CCN(C(=O)c2ccccc2OC)CC3)cc1 | inconclusive [inhibitor, single point] | –
COC(=O)NC(NC(=S)Nc1ccc([N+](=O)[O-])cc1)C(Cl)(Cl)Cl (stereo unspecified) | active: 11.7 µM | –
Cc1nc2ccccc2cc1C(=O)NCc1ccc(F)cc1 | – | inactive: 0%
O=C(C1CCN(c2ccc(N3CCOCC3)nn2)CC1)N1CCN(c2ccc(F)cc2)CC1 | – | inactive: -22.6%

SMILES | Potency | activity change, negative = inhibition
CCCN(CC(=O)Nc1ccc(F)c(F)c1F)CC(=O)Nc1c(Cl)cccc1Cl | inconclusive [inhibitor, single point] | –
CCCCCCCCCCCC[N+](C)(C)CCOc1ccccc1 | active: 4.26 µM | –
COc1cc2[nH]c(=S)nc(NCc3ccccc3)c2cc1OC | – | inactive: -18.8%
COc1ccc(N(CC(=O)Nc2ccc(C)cc2C)S(=O)(=O)c2ccccc2[N+](=O)[O-])c(OC)c1 | active: 9.28 µM | –
CC1Cc2nc(SCC(=O)Nc3ccc(F)cc3F)n(C)c(=O)c2S1 (stereo unspecified) | active: 6.57 µM | –
C/C(=N\NC(=O)c1nnn(-c2nonc2N)c1-c1ccc2c(c1)OCO2)c1ccccc1 | inconclusive [inhibitor, single point] | –
Cc1ccc(S(=O)(=O)N2CCC(C(=O)OC(C)C(=O)NCc3ccc4c(c3)OCO4)CC2)cc1 (stereo unspecified) | – | inactive: 12.9%
CC1CCCN(Cc2c(O)ccc3c(=O)c(-c4ccc(Cl)cc4)coc23)C1 (stereo unspecified) | active: 1.04 µM | –
Cn1c(N)c(C(=O)CSc2nnc(-c3ccccc3F)n2C2CC2)c(=O)n(C)c1=O | inconclusive [inhibitor, single point] | –
COc1ccc(Cn2c(C)nc3c(c(=O)c4ccccc4n3C)c2=O)cc1 | inconclusive [inhibitor, single point] | –
COc1ccc(C(=O)c2nccc3cc(OC)c(OC)cc23)cc1OC | active: 1.17 µM | –
CC(C)C(NS(=O)(=O)c1cccs1)C(=O)NCc1ccccc1Cl (stereo unspecified) | inconclusive [inhibitor, partial curve, poor fit] | –
CC(OC(=O)CCN=C1NS(=O)(=O)c2ccccc21)C(=O)Nc1ccc(F)c(F)c1F (stereo unspecified) | – | inactive: -6.73%
Cc1ccc(C)c(NC(=O)CN(C)C(=O)c2cccc(S(=O)(=O)N3CCCC3)c2)c1 | inconclusive [inhibitor, single point] | –
S=C1CCC(c2ccc(Br)cc2)=NN1c1ccccc1 | inconclusive [inhibitor, single point] | –
COc1ccc(C(=O)NCCCOC(=O)c2ccc(OC)cc2)cc1 | – | inactive: -14.5%
CCOC(=O)c1c(CSc2ccccc2)n(C)c2cc(Br)c(OC)c(O)c12 | inconclusive [inhibitor, partial curve] | –
COc1ccc(OC)c2sc(N3CCN(C(=O)c4ccc5ncsc5c4)CC3)nc12 | active: 11.7 µM | –
CCOCc1cn(CC(=O)c2ccc([N+](=O)[O-])cc2)c(C)nc1=N | active: 1.04 µM | –
CC(CCc1ccccc1)NC(=O)CN1CCSc2ccccc21 (stereo unspecified) | inconclusive [inhibitor, single point] | –
COc1cc(OC)cc(C(=O)N(CCCN2C(=O)c3cccc4cccc(c34)C2=O)c2cccc(OC)c2)c1 | active: 9.28 µM | –
O=C(Nc1sc2c(c1C(=O)O)CCCCC2)c1ccccc1 | – | inactive: -0.77%
CC(C)CN(C(=O)c1ccc2c(c1)OCCO2)c1c(N)n(Cc2ccccc2)c(=O)[nH]c1=O | inconclusive [inhibitor, single point] | –
